Measured values as given in the supplement of paper PMC12355420.
Counter-ions that a name gives are not always drawn. The list shows a part of the results. No stated cut-off is given here; in the data, active = 0.5 or less and inactive = the rest. Repeats are few or missing, and single values can be far off.

Legend:
Conditions in all cases: 50 µM; 24 h
[1] = tested on: HeLa VPS33A reporter cells; experiment: relative cell viability (CellMask signal) vs DMSO (fraction of DMSO); higher = less cytotoxic;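 further: primary screen of an FDA-approved drug library in HeLa reporter cells in 96-well format, CellMask signal normalized to DMSO-treated wells set as 1, under 0.5 deemed highly cytotoxic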
[2] = tested on: HeLa VPS33A R498W KI + HA-SDC1-FLAG; experiment: relative GAG core protein HA-SDC1 amount per cell number vs DMSO (fraction of DMSO); higher = more SDC1 (GAG core protein);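 further: HA-SDC1 level read out by In-Cell Western staining with an anti-HA antibody against the N-terminal tag, screening FDA-approved library drugs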
[3] = tested on: HeLa VPS33A KO + NLuc-VPS33A R498W; experiment: relative mutant VPS33A R498W amount (NanoLuc luminescence) vs DMSO (fraction of DMSO); HeLa model of a glycosaminoglycan (GAG) storage disease; KI is knock-in and KO knock-out; SDC1 is syndecan 1; higher = higher mutant VPS33A level;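 further: screen of an FDA-approved drug library, NanoLuc luminescence read after lysing the treated cells, taken as a measure of mutant VPS33A protein stability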

SMILES	relative cell viability [1]	relative GAG core protein HA-SDC1 amount per cell number [2]	relative mutant VPS33A R498W amount [3]
COc1ccccc1OCC(O)CN1CCN(CC(=O)Nc2c(C)cccc2C)CC1 (stereo unspecified) [Ranolazine]	1.05	inactive: 1.09	0.862
NC(=O)[C@@H](CCC(F)(F)F)N(Cc1ccc(-c2ncon2)cc1F)S(=O)(=O)c1ccc(Cl)cc1	1.25	inactive: 0.883	1.18
C=Cc1c(C)c2cc3[nH]c(cc4nc(cc5nc(cc1[nH]2)C(C)=C5CCC(=O)O)C(CCC(=O)O)=C4C)c(C)c3C=C [Protoporphyrin IX]	1.63	active: 0.353	0.284
S=c1[nH]cnc2nc[nH]c12 [Mercaptopurine (6-MP)]	1.1	inactive: 0.864	6.41
CCCNC(C)C(=O)Nc1ccccc1C (stereo unspecified) [Prilocaine hydrochloride]	1.12	inactive: 1.13	1.08
CN1C(C(=O)Nc2ccccn2)=C(O)c2ccccc2S1(=O)=O [Piroxicam]	1.13	inactive: 1.11	0.952
CNC[C@H](O)c1ccc(O)c(O)c1 [Epinephrine HCl]	1.35	inactive: 0.664	0.94
Cc1ccc(NC(=O)C2(c3ccc4c(c3)OC(F)(F)O4)CC2)nc1-c1cccc(C(=O)O)c1	1.34	inactive: 1.39	1.62
Cc1cccc(N(C)C(=S)Oc2ccc3ccccc3c2)c1 [Tolnaftate]	1.16	inactive: 0.746	1.09
CNCc1cc(-c2ccccc2F)n(S(=O)(=O)c2cccnc2)c1	1.13	inactive: 1.04	0.858
N#Cc1ccc(C(c2ccc(C#N)cc2)n2cncn2)cc1 [Letrozole]	1.33	inactive: 0.967	1.12
Cc1ccccc1C(=O)Nc1ccc(C(=O)N2CCCC(O)c3cc(Cl)ccc32)c(C)c1 (stereo unspecified) [Tolvaptan]	1.02	active: 0.484	0.668
CCCC1O[C@@H]2C[C@H]3[C@@H]4CCC5=CC(=O)C=C[C@]5(C)[C@H]4[C@@H](O)C[C@]3(C)[C@]2(C(=O)CO)O1 (stereo partly specified) [Budesonide]	1.05	inactive: 0.701	0.725
Cc1nccn1CC1CCc2c(c3ccccc3n2C)C1=O (stereo unspecified) [Ondansetron HCl]	0.847	inactive: 0.848	0.959
Nc1ccn(C[C@@H](CO)OCP(=O)(O)O)c(=O)n1 [Cidofovir]	1.02	inactive: 1.43	1.07
O=C(O)Cc1ccccc1Nc1c(Cl)cccc1Cl [Diclofenac]	1.02	inactive: 0.817	1
CN1C(C(=O)Nc2ccccn2)=C(O)c2sc(Cl)cc2S1(=O)=O [Lornoxicam]	1.32	inactive: 0.991	1.33
CC(=O)OCC(=O)[C@@]12OC(C)(C)O[C@@H]1C[C@H]1[C@@H]3C[C@H](F)C4=CC(=O)C=C[C@]4(C)[C@@]3(F)[C@@H](O)C[C@@]12C [Fluocinonide]	1.16	inactive: 0.923	1.15
Cc1cccc(C#Cc2ccccc2)n1	0.966	inactive: 0.766	0.64
CC(C)c1nc(CN(C)C(=O)N[C@H](C(=O)N[C@@H](Cc2ccccc2)C[C@H](O)[C@H](Cc2ccccc2)NC(=O)OCc2cncs2)C(C)C)cs1 [Ritonavir]	1.36	inactive: 1.08	0.563
CC=CC1=C(C(=O)O)N2C(=O)[C@@H](NC(=O)[C@H](N)c3ccc(O)cc3)[C@H]2SC1 [Cefprozil hydrate]	0.961	inactive: 0.848	1.38
OB1OCc2cc(F)ccc21	1.04	inactive: 0.773	0.673
OC[C@H]1O[C@@H](O[C@H]2[C@H](O)[C@@H](O)C(O)O[C@@H]2CO)[C@H](O)[C@@H](O)[C@@H]1O (mixture of isomers) [Cellobiose]	1.13	inactive: 0.951	1.02
Cc1nc(-c2ccc(OCC(C)C)c(C#N)c2)sc1C(=O)O [Febuxostat]	1.12	inactive: 0.653	1.11
O=Cc1ccc(CO)o1 [5-hydroxymethyl-2-furaldehyde]	0.992	inactive: 0.87	1.32
COc1cc(C(=O)NC2CCCNC2)cc(OC)c1OC (stereo unspecified) [Troxipide]	1.1	inactive: 0.833	1.32
c1ccc(C2CN3CCSC3=N2)cc1 (single isomer, unassigned; (-)) [(-)-Tetramisole]	0.865	inactive: 1.17	1.17
